# Test results: ChEMBL document CHEMBL4888484, “Replenishing the malaria drug discovery pipeline: Screening and hit evaluation of the MMV Hit Generation Library 1 (HGL1) against asexual blood stage Plasmodium falciparum ,using a nano luciferase reporter read-out” (2022)
# Hit rate of the full screen: of about 150,000 compounds, about 540 (0.36%) showed an effect of 50% or more. The list shows a part of the results.
# Tested on: Plasmodium falciparum
# Assay: Primary screen in NF54 nanoGlo assay, in single point, at 2uM, 72h; a lower Z score goes with more inhibition
# Assay type: functional, Erythrocyte
# Conditions: timepoint 72 hour
SMILES,% Inhibition,Z score
Cc1cc(COC(=O)c2cc(S(=O)(=O)F)c[nH]2)nc(C)n1,-3%,0.28
O=S(=O)(NC[C@H]1C[C@@H]2CC[N@]1C[C@@H]2CN1CCc2ccccc21)c1cccs1,4%,-0.7
CC12CNC[C@](C)(CN(Cc3ccccc3)C1)C2,-11%,0.96
CCOc1ccc(-c2c(C#N)c(N)nc3c2[C@@H]2CC[C@H](C3)N2C)cn1,-5%,0.77
CC(C)(C)n1nnc(C(=O)Nc2nccc3cc(Br)ccc23)n1,-9%,0.96
Cc1nnsc1CN1C[C@@H](c2ccc3c(c2)OCO3)[C@@H]2[C@H]1C1CCN2CC1,-5%,0.57
C[C@H]1CS(=O)(=O)C[C@H]1NC(=O)c1ccc2oc(=O)[nH]c2c1,-8%,1.62
CC(c1nc(C2CC2)no1)N1C2CCC1COC2 (stereo unspecified),1%,-0.21
Cc1ccccc1NC(=O)C1(N2C[C@@H]3C[C@@H](C2)c2cccc(=O)n2C3)CCC(C)CC1 (stereo partly specified),-9%,1.14
CCc1cnc(C)nc1N1C[C@H]2c3ccccc3OC[C@@]2(C(=O)O)C1,-7%,0.94
O=C(N[C@@H]1[C@@H]2CCO[C@@H]2[C@H]1N1CCCCC1)c1ccon1,1%,-0.2
C[C@@H](Cc1ccc(F)cc1)NCC(C)(C)C(N)=O,-4%,0.56
C[C@@H](C(=O)N1CCC2(CC1)OCCO2)n1nc(-c2ccccc2)c2cc(Cl)ccc21,1%,-0.25
O=C(Cc1noc2ccccc12)NC1CCN2CCCCC12 (stereo unspecified),0%,0.06
O=C1N(C2CCCC2)CCC[C@@]12CCN(Cc1ncccn1)C2,2%,-0.29
COc1cccc(C[C@H](C)NC(=O)N(C)CC2CCN(C)CC2)c1,4%,-0.43
c1cc(CN2CCO[C@]3(CNCCOC3)C2)cs1,12%,-1.5
Cn1c(=O)oc2c(C(=O)Nc3cc(C4CCC4)nn3-c3ccccc3)cccc21,-6%,0.73
CC(C)(C)c1nn(Cc2nc(-c3ccco3)no2)c(=O)o1,-7%,1.04
CC1CC1C(=O)N1CCC(S(=O)(=O)F)C1 (stereo unspecified),-7%,0.88
CC(C)(C)c1nnc2n1CCN(C(=O)c1ccc3[nH]c(=O)oc3c1)C2,21%,-2.65
COc1ccccc1NC(=O)N1C[C@@H]2C[C@H](C1)c1c(-c3ccccc3F)ccc(=O)n1C2,8%,-0.9
CNC(=O)c1ccc(CN2CC(C(=O)c3ccc(F)cc3)C2)cc1,-9%,0.87
CC1CCCC2CCCN(Cc3nc4c(cnn4C)c(=O)[nH]3)C12 (stereo unspecified),-8%,0.94
CCC(CC)C(=O)NC[C@H]1C[C@@H]2CCN1C[C@@H]2c1cc(-c2ccco2)nc(C)n1,19%,-2.17
COc1cc(C[C@H](C)NCc2cc(NC(=O)c3ccccn3)cc(C(=O)N(C)C)c2)ccc1O,-18%,3.24
CN1CCC2OCCN(c3ncccc3C#N)C2C1 (stereo unspecified),-4%,0.73

SMILES,% Inhibition,Z score
CCn1cc(C(=O)Nc2ccc3c(c2)CNCC3)cn1,-13%,2
O=C(COc1ccccc1)N1CCCCC[C@@H]1CN1CCCC1,1%,-0.2
CCCn1nnnc1CN1CCN2CCC[C@H]2C1,0%,-0.04
COC1CCC(NC2CCCN(C(=O)Oc3ccccc3)CC2)C1 (stereo unspecified),-9%,1.33
CCOC(=O)CN1CCCC2(C1)OCCO2,-11%,1.29
CCN1CCC(N(C)c2ccc3nnc(C(F)(F)F)n3n2)CC1,-13%,1.74
COc1ccc2c(c1)c(C(=O)N[C@H]1CCOC(C)(C)C1)cn2C(C)C,-11%,1.41
Cc1ccc(O[C@H]2CCCN(S(=O)(=O)c3ccc4oc(=O)[nH]c4c3)C2)nn1,-9%,0.99
CN(C)[C@H]1[C@@H]2CC[C@H]1CN(Cc1ccc3ncccc3c1)C2,-2%,0.27
O=C(CN1CC[C@@]2(CCc3ccccc32)C1)Nc1cccnn1,2%,-0.28
COc1ccc(Br)cc1[C@H]1N(c2cc(C)on2)C(=O)[C@@H]2CCCN21,-7%,0.93
Nc1cccc(C(=O)NC[C@@H]2CCCN3CCCC[C@H]23)n1,-11%,1.55
CCCc1ccc(-c2c(C#N)c(N)nc3c2CNCC3)o1,4%,-0.68
O=C(c1ccc2oc(=O)[nH]c2c1)N1CCC[C@H]1C(F)(F)F,-4%,0.52
COc1cccc2c1OC1(C(=O)O)CC2Nc2[nH]nc(-c3ccccc3)c21 (stereo unspecified),-6%,0.92
Cn1cc(CCN2CCN(c3ccccc3Cl)CC2)cn1 [ENPIPRAZOLE],-4%,0.36
c1nc(NC[C@H]2CCCO2)ncc1CN1CCOC2(CCCC2)C1,-22%,1.97
O=C(NC1CCCC1)C12CCCN1CCC2,-1%,0.21
O=C(c1nc(=O)[nH][nH]1)N1C2CCC1c1ccccc12,-4%,0.66
Cc1nc(CC(=O)N2C[C@@H]3CC[C@H]2CN(Cc2c(C)noc2C)C3)cs1,-4%,0.68
CC1CC(C)(C)CC1NCC1CCC(O)C1 (stereo unspecified),-10%,1.28
O=C1NC(=O)C2(C(=O)N1)C(c1cccc(Br)c1)NC(=O)NC2c1cccc(Br)c1 (stereo unspecified),4%,-0.44
CCN1C(=O)N(CC(N)=O)C(=O)C12CCNCC2,4%,-0.49
c1ccc(N2CCN(CC34CCC(CC3)N4)CC2)cc1,-5%,0.96
C[C@H]1CN(C)Cc2c1nc(N)c(C#N)c2-c1cccs1,-14%,1.66
C=C[C@H]1OCC[C@@H]1C(=O)N1CCC(c2n[nH]c(=O)o2)CC1,-5%,0.68
